In US20230063794A1, “STAPLED TRIAZOLE CO-AGONISTS OF THE GLUCAGON AND GLP-1 RECEPTORS” (Merck Sharp & Dohme LLC, priority 2019, published 2023):
At least one peptide structure holds a part that was inferred or is arguable (an end, a ring closure or a residue). Starred links: 1 amine or outer side, 2 acyl side, 3 side chain; linkers in the order of their positions; H or OH if unused. Positions of bridges follow the written chain, without caps; N, C: chain ends. Non-standard residues stand in square brackets, D forms with d. Residues, ends and D or L forms follow the SMILES beside them. Groups on a side chain read outwards from the residue. Triazole bridges read from a SMILES are 1,4-linked. *: point of attachment. Lys(N3) = [N-]=[N+]=NCCCC[C@H](N)C(=O)O; γGlu = O=C(O)[C@H](CCC(=O)[*:2])N[*:1]; Met(O2) = CS(=O)(=O)CC[C@H](N)C(=O)O; Palmitoyl = CCCCCCCCCCCCCCCC(=O)*; dPra = C#CC[C@@H](N)C(=O)O; Aib = CC(C)(N)C(=O)O

Target: T1, human GCGR (Homo sapiens, UniProt P47871)
T1 construct: expressed in transfected cells; grown under Blasticidin and Hygromycin selection
T1 sequence (P47871 26-477): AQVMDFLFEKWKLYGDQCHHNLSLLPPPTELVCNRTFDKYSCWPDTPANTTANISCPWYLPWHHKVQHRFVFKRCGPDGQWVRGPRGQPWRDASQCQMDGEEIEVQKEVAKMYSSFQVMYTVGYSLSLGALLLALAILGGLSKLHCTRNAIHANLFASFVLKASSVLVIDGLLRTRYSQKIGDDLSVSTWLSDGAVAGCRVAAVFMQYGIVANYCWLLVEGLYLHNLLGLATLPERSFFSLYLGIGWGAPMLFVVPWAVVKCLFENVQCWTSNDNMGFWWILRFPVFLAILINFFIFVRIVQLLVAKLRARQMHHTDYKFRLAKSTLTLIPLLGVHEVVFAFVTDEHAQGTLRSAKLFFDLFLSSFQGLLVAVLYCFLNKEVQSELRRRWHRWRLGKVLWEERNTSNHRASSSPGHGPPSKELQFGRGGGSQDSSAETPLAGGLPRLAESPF
Experiment: cAMP activity assay in cells expressing human GCGR
Type: cell-based
Settings: ratio of human GCGR EC50 to human GLP1R EC50
Method: Activity of the peptides at the Glucagon receptor (GCGR) and GLP-1 receptor (GLP1R) was measured in a cAMP activity assay.
Peptides were dissolved in 100% DMSO and serially diluted to generate 10 point titrations. The peptide solutions were then transferred into 384-well assay plates (150 nL/well). Assay ready frozen cells expressing human GLP1R or human GCGR were suspended in growth media consisting of DMEM medium (GIBCO), 10% FBS (GIBCO), 1× NEAA(GIBCO), 1× P/S (GIBCO), 10 ug/ml Blasticidin (GIBCO) and 200 μg/mL Hygromycin (GIBCO). Cells were then diluted in assay buffer consisting of PBS (GIBCO), 7.5% BSA (Perkin Elmer), 100 μM RO 20-1724 (Sigma), with or without 20% human serum (MP Biomedical). The cell suspensions (15 μL) were then added to the assay plates containing the peptide solutions (30,000 cells/well for human GCGR; 10,000 cells/well for human GLP1R). The cells were incubated for 1 hour at room temperature in the dark. Production of cAMP was determined using HitHunter™ cAMPXS kits (DiscoverX) following manufacturer protocol. The plates were incubated for overnight at room temperature in the dark. Luminescence was measured using an EnVision Multilabel plate reader (Perkin Elmer). Native GLP-1 and Glucagon (Bachem) are used as control peptides. EC50 values were calculated using uses a 4 parameter logistic fit based on the Levenberg-Marquardt algorithm.

SMILES | hGCGR/hGLP1R (hTone)
CCCCCCCCCCCCCCCC(=O)N[C@@H](CCC(=O)N[C@@H](CCC(=O)NCCCC[C@H](NC(=O)[C@H](CC(=O)O)NC(=O)[C@H](CO)NC(=O)[C@@H](NC(=O)[C@H](Cc1ccccc1)NC(=O)[C@@H](NC(=O)CNC(=O)[C@H](CCC(N)=O)NC(=O)C(C)(C)NC(=O)[C@@H](N)Cc1c[nH]cn1)[C@@H](C)O)[C@@H](C)O)C(=O)N[C@@H](CO)C(=O)N[C@@H](CCCCN)C(=O)N[C@@H](Cc1ccc(O)cc1)C(=O)N[C@@H](CC(C)C)C(=O)N[C@@H](CC(=O)O)C(=O)NC(C)(C)C(=O)N[C@@H](CCCNC(=N)N)C(=O)N[C@@H](C)C(=O)N[C@@H](C)C(=O)N[C@@H](CCC(N)=O)C(=O)N[C@@H](CC(=O)O)C(=O)N[C@@H](Cc1ccccc1)C(=O)N[C@H](C(=O)N[C@@H]1Cc2cn(nn2)CCCC[C@@H](C(=O)N[C@H](C(=O)N[C@@H](CCCCN)C(=O)N[C@@H](CCC(N)=O)C(=O)O)[C@@H](C)O)NC(=O)[C@H](CCS(C)(=O)=O)NC(=O)[C@H](CC(C)C)NC(=O)[C@H](Cc2c[nH]c3ccccc23)NC1=O)C(C)C)C(=O)O)C(=O)O [compound 23] (H-H[Aib]QGTFTSDK([γGlu-γGlu-Palmitoyl])SKYLD[Aib]RAAQDFV[dPra]WL[Met(O2)][Lys(N3)]TKQ-OH; triazole 24-28; N-terminus assumed) | 4.3
CCCCCCCCCCCCCCCC(=O)N[C@@H](CCC(=O)N[C@@H](CCC(=O)NCCCC[C@H](NC(=O)[C@H](CC(=O)O)NC(=O)[C@H](CO)NC(=O)[C@@H](NC(=O)[C@H](Cc1ccccc1)NC(=O)[C@@H](NC(=O)CNC(=O)[C@H](CCC(N)=O)NC(=O)C(C)(C)NC(=O)[C@@H](N)Cc1c[nH]cn1)[C@@H](C)O)[C@@H](C)O)C(=O)N[C@@H](CO)C(=O)N[C@@H](CCCCN)C(=O)N[C@@H](Cc1ccc(O)cc1)C(=O)N[C@@H](CC(C)C)C(=O)N[C@@H](CC(=O)O)C(=O)NC(C)(C)C(=O)N[C@@H]1Cc2cn(nn2)CCCC[C@@H](C(=O)N[C@@H](Cc2ccccc2)C(=O)N[C@H](C(=O)N[C@@H](CCC(N)=O)C(=O)N[C@@H](Cc2c[nH]c3ccccc23)C(=O)N[C@@H](CC(C)C)C(=O)N[C@@H](CCS(C)(=O)=O)C(=O)N[C@@H](CC(=O)O)C(=O)N[C@H](C(=O)N[C@@H](CCCCN)C(=O)N[C@@H](CCC(N)=O)C(=O)O)[C@@H](C)O)C(C)C)NC(=O)[C@H](CCC(N)=O)NC(=O)[C@H](C)NC(=O)[C@H](C)NC1=O)C(=O)O)C(=O)O [compound 22] (H-H[Aib]QGTFTSDK([γGlu-γGlu-Palmitoyl])SKYLD[Aib][dPra]AAQ[Lys(N3)]FVQWL[Met(O2)]DTKQ-OH; triazole 17-21; N-terminus assumed) | 6.17
CC(C)C[C@H](NC(=O)[C@H](Cc1ccc(O)cc1)NC(=O)[C@H](CCCCN)NC(=O)[C@H](CO)NC(=O)[C@H](CCCCN)NC(=O)[C@H](CC(=O)O)NC(=O)[C@H](CO)NC(=O)[C@@H](NC(=O)[C@H](Cc1ccccc1)NC(=O)[C@@H](NC(=O)CNC(=O)[C@H](CCC(N)=O)NC(=O)[C@@H](CO)NC(=O)[C@@H](N)Cc1c[nH]cn1)[C@@H](C)O)[C@@H](C)O)C(=O)N[C@@H](CC(=O)O)C(=O)N[C@@H](CCC(=O)O)C(=O)N[C@@H](CCCNC(=N)N)C(=O)N[C@@H](C)C(=O)N[C@@H](C)C(=O)N[C@H]1CCCCn2cc(nn2)C[C@H](C(=O)N[C@@H](Cc2c[nH]c3ccccc23)C(=O)N[C@@H](CC(C)C)C(=O)N[C@@H](CC(C)C)C(=O)N[C@@H](CC(=O)O)C(=O)N[C@H](C(N)=O)[C@@H](C)O)NC(=O)[C@H](C(C)C)NC(=O)[C@H](Cc2ccccc2)NC(=O)[C@H](CC(=O)O)NC1=O [compound 8] (H-H[dS]QGTFTSDKSKYLDERAA[Lys(N3)]DFV[dPra]WLLDT-NH2; triazole 20-24; N-terminus assumed) | 1.78
